For 19 molecules, enrichment score results are on record in the supplement of paper PMC10369915.

The other results are listed elsewhere or left out. Cut-off read from the data, not from the text of the source: active = 3.2 or more and inactive = the rest. Most of these values are background signal.
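Note: displayed peptides selected on beads carrying the immobilized SH2 domain, with library peptides lacking any tyrosine serving as negative controls.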

One assay has as its target SHP2 C-SH2 domain E139D. Briefly: enrichment score (SH2-bound / input frequency) (ratio); bacterial display of known human phosphotyrosine sites (pTyr-Var adds point mutants) read by sequencing; higher = stronger binding; tyrosines were phosphorylated by kinases first. The settings on record: peptide library: pTyr-Var.
For GDPTEYFSTAI [IGSF22_Y501_YF], the enrichment score is inactive: 0.705.
The same measure, in the same setting: as for DTKDDYSALSV [IL17RB_Y457_N458S], the figure is inactive: 0.607; as for KFVVVYFREID [IL17RB_Y447_YF], inactive: 2.82.
On the same count and under the same terms, the result for RSRRSYSCQVM [IGLL1_Y192] reads inactive: 0.299.
As to STLEVYSCHPP [IL21R_Y317], the enrichment score was inactive: 0.643.
The same measure, in the same setting: the result for SGVSFYINLCQ [IGF2R_Y2025_N2020S_YF] reads inactive: 0.388; that for YTFNSYYMHWV [IGHV1-46_Y51_T49N], active: 3.29.
As for AQADIYKADFQ [IKBKG_Y308], the enrichment score is inactive: 0.671.
For the molecule YLTSSYINIST [IL23R_Y178], the enrichment score is inactive: 2.64.
TFHNTYHSQMR [IL1RAPL1_Y615]: the enrichment score was inactive: 1.34.
KRLDGYVLEGW [IGSF9_Y656_R661W]: the enrichment score is inactive: 0.755.
Take SGVSYYINLCQ [IGF2R_Y2025_N2020S]: the enrichment score was inactive: 0.676.
Take FTFTSYFMHWV [IGHV1-46_Y51_YF]: the enrichment score is inactive: 2.76.
The same measure, in the same setting: the result for KYVVVYFREID [IL17RB_Y447] reads active: 3.97.
Take VMSGPYELKAL [IL1B_Y140]: the enrichment score was inactive: 0.71.
The same measure, in the same setting: the result for FTFNSYFMHWV [IGHV1-46_Y51_T49N_YF] reads inactive: 2.71.
As to LEQQKYTVTID [IKBKB_Y199_V203I], the enrichment score is inactive: 0.621.
Same read-out and setting: as for STLEVYRCHPP [IL21R_Y317_S318R], the figure is inactive: 0.758; as for FLTSSYINIST [IL23R_Y178_YF], inactive: 1.99.

Another assay deals with SHP2 C-SH2 domain wild-type. The assay is described as above. The settings on record: peptide library: pTyr-Var.
Turning to GDPTEYFSTAI [IGSF22_Y501_YF], the enrichment score was inactive: 0.626.
DTKDDYSALSV [IL17RB_Y457_N458S]: the enrichment score is inactive: 0.581.
On the same count and under the same terms, as for KFVVVYFREID [IL17RB_Y447_YF], the figure is inactive: 2.38.
In the case of RSRRSYSCQVM [IGLL1_Y192], the enrichment score is inactive: 0.176.
In the case of STLEVYSCHPP [IL21R_Y317], the enrichment score is inactive: 1.03.
In the case of SGVSFYINLCQ [IGF2R_Y2025_N2020S_YF], the enrichment score is inactive: 2.62.
On the same count and under the same terms, as for YTFNSYYMHWV [IGHV1-46_Y51_T49N], the figure is inactive: 3.12; as for AQADIYKADFQ [IKBKG_Y308], inactive: 0.952.
Regarding YLTSSYINIST [IL23R_Y178], the enrichment score is active: 4.07.
Turning to TFHNTYHSQMR [IL1RAPL1_Y615], the enrichment score is inactive: 1.28.
As to KRLDGYVLEGW [IGSF9_Y656_R661W], the enrichment score was inactive: 0.748.
On the same count and under the same terms, the result for SGVSYYINLCQ [IGF2R_Y2025_N2020S] reads inactive: 0.853.
Take FTFTSYFMHWV [IGHV1-46_Y51_YF]: the enrichment score is inactive: 2.16.
Regarding KYVVVYFREID [IL17RB_Y447], the enrichment score was active: 4.57.
In the case of VMSGPYELKAL [IL1B_Y140], the enrichment score is inactive: 0.741.
On the same count and under the same terms, as for FTFNSYFMHWV [IGHV1-46_Y51_T49N_YF], the figure is inactive: 2.39; as for LEQQKYTVTID [IKBKB_Y199_V203I], inactive: 0.836.
With STLEVYRCHPP [IL21R_Y317_S318R], the enrichment score is inactive: 0.923.
Take FLTSSYINIST [IL23R_Y178_YF]: the enrichment score was inactive: 2.64.

The target in the next assay is SHP2 N-SH2 domain L43F. Described as above. The settings on record: peptide library: pTyr-Var.
As to GDPTEYFSTAI [IGSF22_Y501_YF], the enrichment score is inactive: 0.566.
Take DTKDDYSALSV [IL17RB_Y457_N458S]: the enrichment score is inactive: 0.617.
The same measure, in the same setting: the result for KFVVVYFREID [IL17RB_Y447_YF] reads inactive: 2.61.
Same read-out and setting: as for RSRRSYSCQVM [IGLL1_Y192], the figure is inactive: 0.131; as for STLEVYSCHPP [IL21R_Y317], inactive: 0.621.
In the case of SGVSFYINLCQ [IGF2R_Y2025_N2020S_YF], the enrichment score was inactive: 1.85.
Take YTFNSYYMHWV [IGHV1-46_Y51_T49N]: the enrichment score is inactive: 3.12.
AQADIYKADFQ [IKBKG_Y308]: the enrichment score is inactive: 0.805.
Turning to YLTSSYINIST [IL23R_Y178], the enrichment score is inactive: 3.18.
The same measure, in the same setting: the result for TFHNTYHSQMR [IL1RAPL1_Y615] reads inactive: 1.39; that for KRLDGYVLEGW [IGSF9_Y656_R661W], inactive: 0.876.
On to SGVSYYINLCQ [IGF2R_Y2025_N2020S], for which the enrichment score was inactive: 0.689.
For FTFTSYFMHWV [IGHV1-46_Y51_YF], the enrichment score is inactive: 2.46.
Still for that read-out and setting: as for KYVVVYFREID [IL17RB_Y447], the figure is active: 8.22; as for VMSGPYELKAL [IL1B_Y140], inactive: 0.856.
For FTFNSYFMHWV [IGHV1-46_Y51_T49N_YF], the enrichment score is inactive: 3.02.
For the molecule LEQQKYTVTID [IKBKB_Y199_V203I], the enrichment score was inactive: 1.03.
On the same count and under the same terms, the result for STLEVYRCHPP [IL21R_Y317_S318R] reads inactive: 0.981.
On the same count and under the same terms, the result for FLTSSYINIST [IL23R_Y178_YF] reads inactive: 2.57.

The target in another assay is SHP2 N-SH2 domain T42A. The assay is described as above. The settings on record: peptide library: pTyr-Var.
As to GDPTEYFSTAI [IGSF22_Y501_YF], the enrichment score is inactive: 0.633.
For the molecule DTKDDYSALSV [IL17RB_Y457_N458S], the enrichment score is inactive: 0.434.
The same measure, in the same setting: as for KFVVVYFREID [IL17RB_Y447_YF], the figure is inactive: 1.9.
On the same count and under the same terms, the result for RSRRSYSCQVM [IGLL1_Y192] reads inactive: 0.171; that for STLEVYSCHPP [IL21R_Y317], inactive: 0.509; that for SGVSFYINLCQ [IGF2R_Y2025_N2020S_YF], inactive: 0.858.
On the same count and under the same terms, as for YTFNSYYMHWV [IGHV1-46_Y51_T49N], the figure is inactive: 2.74; as for AQADIYKADFQ [IKBKG_Y308], inactive: 0.611.
With YLTSSYINIST [IL23R_Y178], the enrichment score is active: 7.95.
The same measure, in the same setting: as for TFHNTYHSQMR [IL1RAPL1_Y615], the figure is inactive: 1.22; as for KRLDGYVLEGW [IGSF9_Y656_R661W], inactive: 0.798; as for SGVSYYINLCQ [IGF2R_Y2025_N2020S], inactive: 0.487.
Consider FTFTSYFMHWV [IGHV1-46_Y51_YF], for which the enrichment score is inactive: 1.85.
For the molecule KYVVVYFREID [IL17RB_Y447], the enrichment score was active: 7.58.
Same read-out and setting: as for VMSGPYELKAL [IL1B_Y140], the figure is inactive: 0.64; as for FTFNSYFMHWV [IGHV1-46_Y51_T49N_YF], inactive: 2.23; as for LEQQKYTVTID [IKBKB_Y199_V203I], inactive: 0.476.
The same measure, in the same setting: the result for STLEVYRCHPP [IL21R_Y317_S318R] reads inactive: 0.715.
Still for that read-out and setting: the result for FLTSSYINIST [IL23R_Y178_YF] reads active: 8.83.

The next assay has as its target SHP2 N-SH2 domain T52S. The assay is described as above. As to conditions: peptide library: pTyr-Var.
On to GDPTEYFSTAI [IGSF22_Y501_YF], for which the enrichment score is inactive: 0.56.
With DTKDDYSALSV [IL17RB_Y457_N458S], the enrichment score was inactive: 0.505.
As for KFVVVYFREID [IL17RB_Y447_YF], the enrichment score is inactive: 2.73.
With RSRRSYSCQVM [IGLL1_Y192], the enrichment score was inactive: 0.169.
Consider STLEVYSCHPP [IL21R_Y317], for which the enrichment score was inactive: 0.594.
Consider SGVSFYINLCQ [IGF2R_Y2025_N2020S_YF], for which the enrichment score is inactive: 0.909.
Still for that read-out and setting: the result for YTFNSYYMHWV [IGHV1-46_Y51_T49N] reads inactive: 3.02; that for AQADIYKADFQ [IKBKG_Y308], inactive: 0.75.
YLTSSYINIST [IL23R_Y178]: the enrichment score is active: 3.73.
Regarding TFHNTYHSQMR [IL1RAPL1_Y615], the enrichment score was inactive: 1.4.
On to KRLDGYVLEGW [IGSF9_Y656_R661W], for which the enrichment score was inactive: 0.834.
On the same count and under the same terms, the result for SGVSYYINLCQ [IGF2R_Y2025_N2020S] reads inactive: 0.583; that for FTFTSYFMHWV [IGHV1-46_Y51_YF], inactive: 2.73.
KYVVVYFREID [IL17RB_Y447]: the enrichment score is active: 10.2.
The same measure, in the same setting: the result for VMSGPYELKAL [IL1B_Y140] reads inactive: 0.621; that for FTFNSYFMHWV [IGHV1-46_Y51_T49N_YF], inactive: 2.32.
LEQQKYTVTID [IKBKB_Y199_V203I]: the enrichment score is inactive: 0.617.
The same measure, in the same setting: as for STLEVYRCHPP [IL21R_Y317_S318R], the figure is inactive: 0.744; as for FLTSSYINIST [IL23R_Y178_YF], inactive: 2.97.

The target of the next assay is SHP2 N-SH2 domain wild-type. Described as above. As to conditions: peptide library: pTyr-Var.
In the case of GDPTEYFSTAI [IGSF22_Y501_YF], the enrichment score was inactive: 1.08.
Take DTKDDYSALSV [IL17RB_Y457_N458S]: the enrichment score was inactive: 0.616.
On the same count and under the same terms, as for KFVVVYFREID [IL17RB_Y447_YF], the figure is inactive: 2.17.
Regarding RSRRSYSCQVM [IGLL1_Y192], the enrichment score is inactive: 0.302.
On the same count and under the same terms, the result for STLEVYSCHPP [IL21R_Y317] reads inactive: 1.08.
Turning to SGVSFYINLCQ [IGF2R_Y2025_N2020S_YF], the enrichment score was active: 4.43.
The same measure, in the same setting: the result for YTFNSYYMHWV [IGHV1-46_Y51_T49N] reads inactive: 3.14; that for AQADIYKADFQ [IKBKG_Y308], inactive: 0.775.
Still for that read-out and setting: the result for YLTSSYINIST [IL23R_Y178] reads inactive: 2.22.
As for TFHNTYHSQMR [IL1RAPL1_Y615], the enrichment score is inactive: 1.41.
Turning to KRLDGYVLEGW [IGSF9_Y656_R661W], the enrichment score is inactive: 0.811.
For the molecule SGVSYYINLCQ [IGF2R_Y2025_N2020S], the enrichment score is inactive: 0.82.
Still for that read-out and setting: the result for FTFTSYFMHWV [IGHV1-46_Y51_YF] reads inactive: 2.81; that for KYVVVYFREID [IL17RB_Y447], active: 4.07.
On the same count and under the same terms, as for VMSGPYELKAL [IL1B_Y140], the figure is inactive: 0.713.
On the same count and under the same terms, as for FTFNSYFMHWV [IGHV1-46_Y51_T49N_YF], the figure is inactive: 2.61; as for LEQQKYTVTID [IKBKB_Y199_V203I], inactive: 0.611.
For STLEVYRCHPP [IL21R_Y317_S318R], the enrichment score is inactive: 0.941.
On the same count and under the same terms, as for FLTSSYINIST [IL23R_Y178_YF], the figure is inactive: 1.69.
